Sequences with one replicate were seen in a single cluster, so their values are uncertain.
These sequences were tested on ATP (assay: switch fluorescence ratio, 500 uM ATP over buffer (Cy3 cluster intensity, sum of 5 cycles each) (fold (ratio)); higher = stronger signal-on switching upon ATP binding; sequences stand for … in TCGTCGGCAGCGTCAGATGTGTATAAGAGACAGTTTTTTTTTTTTTTTTTTTTTTTTT…TC). Settings: aptamer strand: ATP DNA aptamer (quencher-CACCTGGGGGAGTATTGCGGAGGAAGG + anchor), 100 nM annealed; ATP concentration: 500 uM; one replicate.
Summary of the method: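 Clusters with intensities outside 100-1000 RFU were excluded. The remaining Cy3-labelled switching-strand clusters on a modified Illumina MiSeq flow-cell had been annealed to 100 nM quencher-labelled ATP aptamer and imaged in selection buffer, then after 15 min with 500 uM ATP at 22 °C, for five cycles separated by NaOH stripping and re-annealing. The fluorescence ratio, averaged per switch-domain sequence, is each cluster's summed target-cycle Cy3 intensity over its summed buffer-cycle Cy3 intensity.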
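Also: ATP exposure 15 min at 22 °C before imaging.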

Row | Sequence | switch fluorescence ratio
1 | TTCGGACATA | 1.01
2 | TTCGGAGACC | 1.02
3 | TTCGGATAGC | 1.01
4 | TTCGGATTTG | 0.999
5 | TTCGGCGCCC | 0.979
6 | TTCGGCGTCC | 0.983
7 | TTCGGGTGTC | 1
8 | TTCGGTAGGA | 0.983
9 | TTCGGTTCTG | 0.968
10 | TTCGGTTTCG | 0.983
11 | TTCGTAAATA | 1.14
12 | TTCGTAGGGG | 1.03
13 | TTCGTAGGT | 0.974
14 | TTCGTCTAAT | 0.998
15 | TTCGTCTAGT | 0.997
16 | TTCGTCTTGT | 0.952
17 | TTCGTGCGTT | 1.04
18 | TTCGTTCAA | 1.65
19 | TTCGTTCATT | 1.02
20 | TTCGTTGGAG | 0.947
21 | TTCGTTGGT | 0.999
22 | TTCTAGACGG | 1.03
23 | TTCTAGGAAA | 0.978
24 | TTCTATAGAC | 1.03
25 | TTCTATAGCG | 1.02

Row | Sequence | switch fluorescence ratio
26 | TTCTCAACGC | 1.09
27 | TTCTCACATT | 1.02
28 | TTCTCATCGG | 1
29 | TTCTCCAC | 1.18
30 | TTCTCGAATG | 1.01
31 | TTCTCGCGTA | 1.02
32 | TTCTCGTCGA | 1.01
33 | TTCTCGTTAG | 1.15
34 | TTCTGCGGAG | 1.03
35 | TTCTGCTCCC | 1.04
36 | TTCTGCTCTT | 1.02
37 | TTCTGCTGTG | 1.02
38 | TTCTGGCGTG | 0.987
39 | TTCTGGGACA | 1.05
40 | TTCTGGTATG | 0.936
41 | TTCTGGTCTG | 0.993
42 | TTCTTAAAGT | 0.989
43 | TTCTTAGATC | 0.988
44 | TTCTTAGTAA | 0.976
45 | TTCTTATTTG | 1.04
46 | TTCTTCAACT | 1.03
47 | TTCTTCAGAC | 1.02
48 | TTCTTCTGTA | 1.02
49 | TTCTTGATCC | 1.04
50 | TTCTTGGAGG | 0.959

Row | Sequence | switch fluorescence ratio
51 | TTCTTGGTAA | 1.04
52 | TTCTTTCTTG | 1.31
53 | TTCTTTGTCG | 0.901
54 | TTGAAAACGT | 1.04
55 | TTGAAAAGGA | 0.963
56 | TTGAAAAGTT | 1.05
57 | TTGAAACGTG | 0.947
58 | TTGAACTCAC | 1.04
59 | TTGAAGACAG | 0.981
60 | TTGAAGCTTG | 0.987
61 | TTGAAGTGAT | 1.59
62 | TTGAAGTTTA | 1
63 | TTGAATAAAC | 0.967
64 | TTGAATGCGT | 0.948
65 | TTGACAACG | 0.941
66 | TTGACACCCT | 1.2
67 | TTGACCAGGC | 1.06
68 | TTGACCCCTT | 1.13
69 | TTGACCTTGT | 1.02
70 | TTGACGGGTT | 1.05
71 | TTGACGTCTG | 0.887
72 | TTGACTGTAT | 1.02
73 | TTGAGAAACT | 1.04
74 | TTGAGAACCC | 0.998
75 | TTGAGAAGTA | 0.977

Row | Sequence | switch fluorescence ratio
76 | TTGAGACGTG | 0.971
77 | TTGAGATAAC | 0.976
78 | TTGAGATTCA | 0.988
79 | TTGAGCAAT | 1.91
80 | TTGAGCTTAA | 1.01
81 | TTGAGGCTGG | 1.02
82 | TTGAGGTCAG | 0.941
83 | TTGAGTCTGT | 0.999
84 | TTGAGTGAGT | 0.973
85 | TTGATACCAT | 1.01
86 | TTGATAGGAG | 0.961
87 | TTGATCTATT | 1.02
88 | TTGATCTGTG | 0.99
89 | TTGATGACGA | 0.97
90 | TTGATGTCCG | 0.99
91 | TTGATTAACG | 1.02
92 | TTGATTCTTC | 1.01
93 | TTGATTTCAC | 1.01
94 | TTGCAAACCG | 1.07
95 | TTGCAATTGC | 1.07
96 | TTGCACCCCT | 1.07
97 | TTGCACGCA | 1.08
98 | TTGCAGCACA | 1.43
99 | TTGCAGCAGA | 1.37
100 | TTGCAGCCGT | 1.03
